Laboratory results from paper PMC6919601, “Identification of Plasmodium dipeptidyl aminopeptidase allosteric inhibitors by high throughput screening” (PLoS ONE, 2019).
Screen size: about 110,000 compounds; about 230 (0.21%) showed an effect of 50% or more. The list shows a part of the results.

molecular target: DPAP1 (Plasmodium falciparum, UniProt Q8IIJ9); assay: primary screen, percent inhibition; read by cleavage of a fluorogenic dipeptide substrate; higher = more effect of the substance; set-up: species or system P. falciparum D10 trophozoite lysates; single well
Sequence (Q8IIJ9 whole entry, looked up): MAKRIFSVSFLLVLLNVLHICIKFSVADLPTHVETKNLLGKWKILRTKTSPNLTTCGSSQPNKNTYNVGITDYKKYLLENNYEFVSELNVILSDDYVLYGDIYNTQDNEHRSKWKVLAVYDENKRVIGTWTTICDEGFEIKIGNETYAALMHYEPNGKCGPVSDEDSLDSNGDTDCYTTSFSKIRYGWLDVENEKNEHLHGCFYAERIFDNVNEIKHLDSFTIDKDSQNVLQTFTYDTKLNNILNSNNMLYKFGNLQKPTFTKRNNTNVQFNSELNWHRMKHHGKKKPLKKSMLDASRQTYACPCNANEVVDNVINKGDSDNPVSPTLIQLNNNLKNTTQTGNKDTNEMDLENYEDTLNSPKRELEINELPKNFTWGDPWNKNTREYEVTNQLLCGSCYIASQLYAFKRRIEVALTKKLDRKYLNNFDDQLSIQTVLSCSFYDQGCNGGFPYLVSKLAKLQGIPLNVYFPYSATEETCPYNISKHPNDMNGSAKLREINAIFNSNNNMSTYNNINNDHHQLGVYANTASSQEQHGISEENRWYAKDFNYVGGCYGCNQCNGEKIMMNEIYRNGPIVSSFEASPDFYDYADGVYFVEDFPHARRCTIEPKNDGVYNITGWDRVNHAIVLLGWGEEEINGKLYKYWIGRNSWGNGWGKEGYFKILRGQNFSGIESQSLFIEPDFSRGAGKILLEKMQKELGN
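Also: 30 min substrate incubation versus DMSO and 10 µM JCP410 controls.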

Structure (SMILES) | % Inhibition @ 10 uM
Cc1c(C(=O)NC2CCCCC2)sc2nc(-c3ccc(F)cc3)cn12 | -5.82%
COC(=O)C1=C(C)NC(=O)CC1c1c(Cl)cccc1Cl (centres unmarked) | 3.05%
Oc1ccc2ccccc2c1CN1CCN(c2ccccc2F)CC1 | 0.273%
CC(=O)c1ccc(OCC(O)CN2CCc3ccccc3C2)cc1 (centres unmarked) | 0.343%
CSc1ccc(CCNC(=O)c2ccc(CS(=O)c3ccccc3Cl)o2)cc1 (centres unmarked) | -4.82%
Cc1nc(NCC2CCCO2)c2c(C)c(C)sc2n1 (centres unmarked) | -0.519%
Fc1ccc(CN2CCN(c3ccccn3)CC2)cc1 | 1.38%
C#CCSc1nc2ccccc2c(=O)n1CC=C | -0.28%
O=C(c1ccc(Cl)cc1Cl)N1CCN(c2cccc(Cl)c2)CC1 | 1.54%
c1ccc(-c2csc(Nc3cccnc3)n2)cc1 | -1.69%
CC1CCN(S(=O)(=O)c2cccc3c2C(=O)c2ccccc2C3=O)CC1 | 1.72%
Cc1cc(C)c(C)c(C=C2C(=O)c3ccccc3C2=O)c1C | -7.99%
CCCn1c(NCc2ccc(OC)cc2OC)nc2ccccc21 | -2.91%
O=[N+]([O-])c1ccc(CN2CCC(Cc3ccccc3)CC2)s1 | 1.4%
COc1cc(C(=O)NCc2cn3cccc(C)c3n2)cc(OC)c1OC | 3.3%
CC1=C(C(=O)N(C)Cc2ccccc2)C2(CCC(C)CC2)OC1=O (centres unmarked) | -5.58%
CCOc1ccccc1C(=O)Nc1cc(Cl)ccc1OC | 1.47%
Cc1ccc(OCCSc2nc(C)cc(O)n2)cc1 | 1.62%
O=C(Nc1cccc2c(NC(=O)c3cccs3)cccc12)c1cccs1 | 0.907%
c1ccc(CSc2n[nH]c(-c3ccccc3)n2)cc1 | 4.85%
O=C1C2CCCCC2C(=O)N1Cc1ccccc1 (centres unmarked) | -1.96%
CC(Oc1ccccc1)C(=O)NCCc1ccc(Cl)cc1 (centres unmarked) | -8.42%

Structure (SMILES) | % Inhibition @ 10 uM
COc1ccccc1CNCc1c(C(=O)O)n(Cc2ccc(F)cc2Cl)c2ccccc12 | 0.277%
Cc1cccc(C)c1OCCCCCc1c(C)n[nH]c1C | 3.47%
O=C(Nc1ccc2ccccc2c1)Nc1ccccc1SC(F)(F)F | 1.8%
CN(CCNC(=O)C1c2ccccc2C(=O)N(C)C1c1cccs1)C1CCCCC1 (centres unmarked) | -5.11%
Cc1ccc2c(c1)cc1c(=O)n(CC(=O)NCCC(C)C)nc(C)n12 | -5.55%
Cc1ccc(S(=O)(=O)N(CC(=O)O)Cc2ccccc2F)cc1 | 2.57%
Cc1ccc(-n2nc3c(c2NC(=O)CCc2ccccc2)CS(=O)(=O)C3)cc1 | 7.78%
COc1cccc(/C=C2\NC(=O)N(Cc3ccccc3F)C2=O)c1O | -0.0626%
N#Cc1c(C(F)(F)F)cc(-c2ccccc2)nc1SCC(=O)Nc1nccs1 | -11.4%
O=C1c2ccccc2C(=O)N1CCCc1nc(-c2cccs2)no1 | 0.9%
CC(CNC(=O)Cn1ncc2ccsc2c1=O)c1ccccc1 (centres unmarked) | -8.42%
c1ccc(COc2ccc3c(c2)c2c4n3CCNC4CCC2)cc1 (centres unmarked) | -1.96%
Cc1nnc(N2CCCC(C(=O)NCCCc3ccccc3)C2)c2nn(-c3ccccc3)c(C)c12 (centres unmarked) | 2.08%
CCC(=O)N(Cc1ccccc1)c1nc(C)cc(COC)c1C#N | 4.58%
Cc1ccc(C)c(-c2ccc(=O)n(Cc3cc(=O)n4ccccc4n3)n2)c1 | 5.54%
CCN(CC)CCNc1nc2c(=O)[nH]c(=O)n(C)c2[nH]1 | 1.96%
CCCCNC(=O)CCc1nc(-c2ccc(C(C)(C)C)cc2)no1 | -3.12%
Cc1cc(-c2ccc(S(=O)(=O)N(C)Cc3ccccc3)s2)on1 | 3.08%
O=C(Nc1sc2c(c1C(=O)NCc1ccco1)CCC2)c1cc(=O)c2cc(Cl)ccc2o1 | 0.248%
COc1ccc(C2=N/C(=C\C=C\c3ccccc3OC)C(=O)O2)c(Cl)c1 | 6.86%
Cc1cc(C)n(C(C)CC(=O)NCc2ccc3c(c2)OCO3)n1 (centres unmarked) | -5.52%
COc1ccc(C(=O)NCC2COc3ccccc3O2)cc1OC (centres unmarked) | 3.32%

Structure (SMILES) | % Inhibition @ 10 uM
Cc1nc2cc(-c3ccccc3)nn2c(C)c1CC(=O)NCC1CCCO1 (centres unmarked) | -2.45%
Cc1ccc(OCC(=O)Nc2ccc(C(N)=O)cc2)cc1 | -1.74%
COc1ccc(CNC(=O)C(C)n2ccc3cc(S(=O)(=O)N4CCCC4)ccc32)cc1 (centres unmarked) | 0.931%
CCOc1ccc(N(CC(=O)Nc2cc(C(F)(F)F)ccc2Cl)S(C)(=O)=O)cc1 | -3.77%
CCOc1cc(/C=C2/C(=N)N3OC(C)=CC3=NC2=O)ccc1OCc1cccc(C)c1 | -7.05%
Cc1csc2nc(CNC(=O)COc3ccccc3)cn12 | -0.72%
Cc1nc(SCC(=O)Nc2cccc(C(F)(F)F)c2)c(C#N)c(C)c1C | -0.305%
O=C(CSc1nc2ccccc2o1)NC1CCCCC1 | 4.03%
Cc1cc2nc(SCc3ccccc3)[nH]c2cc1C | 23.8%
Cc1cc(C)c(S(=O)(=O)N2CCN(c3ccccc3F)CC2)c(C)c1 | 3.86%
COc1cc(OC)cc(C(=O)NCc2ccc(S(N)(=O)=O)cc2)c1 | -4.94%
COc1cccc(C(=O)N2CCC(C(=O)N3CCOCC3)CC2)c1 | 1.52%
O=C(COC(=O)C1CC1)c1c[nH]c2ccccc12 | 1.66%
CC(=O)c1ccc(NC(=O)c2ccc3ccccc3c2)cc1 | -5.1%
O=S(=O)(Cc1ccc(Cl)cc1)c1nc2ccccc2[nH]1 | -5.92%
COCCCN1C(=O)/C(=C\c2ccc(C(=O)OC)cc2)C(C(=O)OC)=C1C | 1.7%
CCOC(=O)C1CCCCN1Cc1ccc(OC)c(C)c1OC (centres unmarked) | -1.92%
Cc1cccn2c(=O)c(/C=C(\C#N)C(=O)N3CCCCC3)c(Oc3ccc(Br)cc3)nc12 | 3.63%
CC1CCN(C(=O)CCc2nc(CN3CCN(C(=O)/C=C/c4ccco4)CC3)no2)CC1 | 0.889%
O=C(NCc1ccccc1)c1cccc(S(=O)(=O)Nc2ccc(Br)cc2)c1 | 6.31%
CCN(CC)CCOC(=O)NS(=O)(=O)c1ccccc1Cl | -0.999%
